These results are taken from the GPR68 mutational scans of Howard et al. (2025).

Scores with a large standard error are left out. Not listed are two conditions whose scores span a narrow range. Read del as a deletion of the residues named and ins as an insertion between two positions. For some assays here: The data file names ogerin without a concentration.

Sequences and labels used below:
B1: GPR68, Q15743 (parent)
chain: MGNITADNSSMSCTIDHTIHQTLAPVVYVTVLVVGFPANCLSLYFGYLQIKARNELGVYLCNLTVADLFYICSLPFWLQYVLQHDNWSHGDLSCQVCGILLYENIYISVGFLCCISVDRYLAVAHPFRFHQFRTLKAAVGVSVVIWAKELLTSIYFLMHEEVIEDENQHRVCFEHYPIQAWQRAINYYRFLVGFLFPICLLLASYQGILRAVRRSHGTQKSRKDQIQRLVLSTVVIFLACFLPYHVLLLVRSVWEASCDFAKGVFNAYHFSLLLTSFNCVADPVLYCFVSETTHRDLARLRGACLAFLTCSRTGRAREAYPLGAPEASGKSGAQGEEPELLTKLHPAFQTPNSPGSGGFPTGRLA

In data set [1] the parent is B1. Briefly: cAMP reporter score (Enrich2 score, wild type = 0); higher = more signal; HEK293T, FACS bins.
In data set [2] the parent is B1. Kind of data set: surface expression score (Enrich2 score, wild type = 0); higher = more signal; HEK293T, FACS bins.

P197M: the cAMP reporter score is -1.19 in data set [1] (pH 5.5); -1.53 in data set [1] (pH 6); -1.9 in data set [1] (pH 6, modulator: ogerin); -2.19 in data set [1] (pH 6.5, modulator: ogerin). Besides, the surface expression score in data set [2] is -1.74.
P197F: the cAMP reporter score in data set [1] (pH 5.5) was -1.87; in data set [1] (pH 6, modulator: ogerin), -0.63; in data set [1] (pH 6.5, modulator: ogerin) it was -2.85. Also, in data set [2], the surface expression score is -2.35.
With P197T, the cAMP reporter score in data set [1] (pH 5.5) is -1.81; in data set [1] (pH 6) it was -1.19; in data set [1] (pH 6, modulator: ogerin), -1.57; in data set [1] (pH 6.5, modulator: ogerin) it was -1.3. Besides, the surface expression score in data set [2] is -2.37.
P197Y: the cAMP reporter score was -0.426 in data set [1] (pH 5.5); -0.532 in data set [1] (pH 6); -0.604 in data set [1] (pH 6.5, modulator: ogerin).
For P197R, the cAMP reporter score in data set [1] (pH 5.5) was -1.25; in data set [1] (pH 6) it was -0.804; in data set [1] (pH 6, modulator: ogerin), -1.37; in data set [1] (pH 6.5, modulator: ogerin) it was -1.43. The surface expression score in data set [2] was -1.71.
As for P197V, the cAMP reporter score in data set [1] (pH 5.5) was -1.56; in data set [1] (pH 6), -1.72; in data set [1] (pH 6, modulator: ogerin), -1.73; in data set [1] (pH 6.5, modulator: ogerin), -0.702. In data set [2], the surface expression score was -2.39.
For P197Q, the cAMP reporter score in data set [1] (pH 5.5) is -1.16; in data set [1] (pH 6, modulator: ogerin) it was -1.8; in data set [1] (pH 6.5, modulator: ogerin), -0.446. Also, in data set [2], the surface expression score was -2.52.
Turning to P197I, the cAMP reporter score is -2.23 in data set [1] (pH 5.5); -1.98 in data set [1] (pH 6); -0.793 in data set [1] (pH 6.5, modulator: ogerin).
With P197L, the cAMP reporter score in data set [1] (pH 5.5) was -0.406; in data set [1] (pH 6), -0.533.
In the case of P197W, the cAMP reporter score in data set [1] (pH 5.5) was -0.608; in data set [1] (pH 6) it was -0.317; in data set [1] (pH 6.5, modulator: ogerin), -0.439. Besides, the surface expression score in data set [2] is -1.67.
On to Y188_R189insG, for which the cAMP reporter score in data set [1] (pH 5.5) was -1.89; in data set [1] (pH 6), -1.35. Besides, the surface expression score in data set [2] is -3.39.
For the variant L195F, the cAMP reporter score in data set [1] (pH 5.5) was 1.06; in data set [1] (pH 6), -0.551; in data set [1] (pH 6, modulator: ogerin) it was 0.447; in data set [1] (pH 6.5, modulator: ogerin), -0.131. In addition, the surface expression score in data set [2] is -0.002.
L195V: the cAMP reporter score in data set [1] (pH 5.5) was 0.347; in data set [1] (pH 6), 0.879; in data set [1] (pH 6, modulator: ogerin) it was 0.634; in data set [1] (pH 6.5, modulator: ogerin) it was 0.551. In addition, the surface expression score in data set [2] was determined as 0.085.
As for L195T, the cAMP reporter score was 0.544 in data set [1] (pH 5.5); -1.5 in data set [1] (pH 6); 0.261 in data set [1] (pH 6, modulator: ogerin); -0.208 in data set [1] (pH 6.5, modulator: ogerin). In data set [2], the surface expression score is -1.23.
As to L195G, the cAMP reporter score in data set [1] (pH 5.5) was 0.305; in data set [1] (pH 6), 0.008; in data set [1] (pH 6, modulator: ogerin) it was 1.28; in data set [1] (pH 6.5, modulator: ogerin), 0.014. In addition, the surface expression score in data set [2] is -0.452.
As to L195I, the cAMP reporter score is -0.08 in data set [1] (pH 5.5); 0.397 in data set [1] (pH 6); 0.707 in data set [1] (pH 6, modulator: ogerin); 0.648 in data set [1] (pH 6.5, modulator: ogerin). Further, the surface expression score in data set [2] is -0.352.
Turning to L195P, the cAMP reporter score is -2.85 in data set [1] (pH 5.5); -0.309 in data set [1] (pH 6); -0.616 in data set [1] (pH 6, modulator: ogerin); -0.469 in data set [1] (pH 6.5, modulator: ogerin).
Regarding L195R, the cAMP reporter score is -0.851 in data set [1] (pH 5.5); -2.36 in data set [1] (pH 6, modulator: ogerin); -2.56 in data set [1] (pH 6.5, modulator: ogerin). In addition, the surface expression score in data set [2] was -2.48.
L195S: the cAMP reporter score in data set [1] (pH 5.5) is 0.211; in data set [1] (pH 6), -0.942; in data set [1] (pH 6, modulator: ogerin) it was -0.059; in data set [1] (pH 6.5, modulator: ogerin) it was -1.32. Further, in data set [2], the surface expression score is -1.18.
For the variant L195Q, the cAMP reporter score was -1.1 in data set [1] (pH 5.5) and -2.36 in data set [1] (pH 6, modulator: ogerin). Besides, the surface expression score in data set [2] was -4.67.
As to L195C, the cAMP reporter score was 0.538 in data set [1] (pH 5.5); -0.189 in data set [1] (pH 6); 1.2 in data set [1] (pH 6, modulator: ogerin); 1.46 in data set [1] (pH 6.5, modulator: ogerin). The surface expression score in data set [2] stood at 0.379.
As to L195E, the cAMP reporter score in data set [1] (pH 5.5) was -1.38; in data set [1] (pH 6.5, modulator: ogerin), -0.664. The surface expression score in data set [2] was -3.48.
Take L195Y: the cAMP reporter score in data set [1] (pH 5.5) is -1.66; in data set [1] (pH 6) it was -1.03; in data set [1] (pH 6, modulator: ogerin) it was -1.98; in data set [1] (pH 6.5, modulator: ogerin), -1.44. The surface expression score in data set [2] was -2.5.
Regarding L195N, the cAMP reporter score was -1.98 in data set [1] (pH 5.5); -0.992 in data set [1] (pH 6, modulator: ogerin); -0.907 in data set [1] (pH 6.5, modulator: ogerin). Besides, the surface expression score in data set [2] is -1.66.
Turning to L195M, the cAMP reporter score worked out at 1.61 in data set [1] (pH 5.5); 0.534 in data set [1] (pH 6); 1.56 in data set [1] (pH 6, modulator: ogerin); 0.793 in data set [1] (pH 6.5, modulator: ogerin). Besides, the surface expression score in data set [2] is -0.101.
As to L195H, the cAMP reporter score in data set [1] (pH 5.5) was -1.37; in data set [1] (pH 6, modulator: ogerin), -1.5; in data set [1] (pH 6.5, modulator: ogerin), -1.36. In addition, the surface expression score in data set [2] is -2.5.
For L195D, the cAMP reporter score was -1.1 in data set [1] (pH 5.5); -1.95 in data set [1] (pH 6); -0.436 in data set [1] (pH 6.5, modulator: ogerin). The surface expression score in data set [2] is -2.66.
Turning to L195W, the cAMP reporter score in data set [1] (pH 5.5) is -0.034; in data set [1] (pH 6, modulator: ogerin), -0.096; in data set [1] (pH 6.5, modulator: ogerin) it was -0.374. Besides, the surface expression score in data set [2] was -2.16.
With L195K, the cAMP reporter score in data set [1] (pH 5.5) was -0.576; in data set [1] (pH 6), -0.352; in data set [1] (pH 6, modulator: ogerin), -1.27; in data set [1] (pH 6.5, modulator: ogerin), -2.16. Besides, the surface expression score in data set [2] is -2.56.
With L195A, the cAMP reporter score in data set [1] (pH 5.5) was 0.139; in data set [1] (pH 6, modulator: ogerin) it was -0.773. Besides, the surface expression score in data set [2] was -0.872.
Regarding I198M, the cAMP reporter score in data set [1] (pH 5.5) is 0.156; in data set [1] (pH 6), -0.125; in data set [1] (pH 6, modulator: ogerin), -0.414; in data set [1] (pH 6.5, modulator: ogerin) it was -0.749. Further, the surface expression score in data set [2] was 1.69.
On to I198V, for which the cAMP reporter score in data set [1] (pH 5.5) amounted to 0.791; in data set [1] (pH 6) it was 3.5; in data set [1] (pH 6.5, modulator: ogerin), 3.42. In addition, in data set [2], the surface expression score came to 1.15.
With I198Q, the cAMP reporter score in data set [1] (pH 5.5) was -0.389; in data set [1] (pH 6, modulator: ogerin), 0.175. Also, in data set [2], the surface expression score is -1.31.
Regarding I198E, the cAMP reporter score is -0.838 in data set [1] (pH 5.5); 2.35 in data set [1] (pH 6); -2.5 in data set [1] (pH 6.5, modulator: ogerin). The surface expression score in data set [2] was -1.94.
For I198N, the cAMP reporter score in data set [1] (pH 5.5) was -0.629; in data set [1] (pH 6, modulator: ogerin), -0.86; in data set [1] (pH 6.5, modulator: ogerin) it was -0.818. In data set [2], the surface expression score is -1.74.
